In one assay the test system is HSkMC. As to the kind of experiment: cytotoxicity call (relative viability < 0.9). As to conditions: 10 µM.
The next assay relates to HepG2. As to the kind of experiment: cytotoxicity call (relative viability < 0.9). The conditions noted are these: 10 µM.
For the next assay, the system named is S. aureus RN4220. As to the kind of experiment: growth inhibition call (relative growth <= 0.2). As to conditions: 50 µM.

The structures appear in SMILES notation. This is one part of the list.

For the compound `CC(C)NC(=O)N(C)C[C@@H]1OCCCC[C@H](C)Oc2ccc(NS(C)(=O)=O)cc2C(=O)N([C@@H](C)CO)C[C@H]1C`, the cytotoxicity call in the assay with HSkMC and in the assay on HepG2 was “inactive” throughout. Also, in the assay with S. aureus RN4220, the growth inhibition call is “inactive”.

Regarding `CN(C)CCCNC(=O)C[C@H]1CC[C@H]2[C@@H](COC[C@@H](O)CN2C(=O)c2cc(Cl)cc(Cl)c2)O1`, the cytotoxicity call in the assay with HSkMC and in the assay on HepG2 was “inactive” in each case. Moreover, the growth inhibition call in the assay with S. aureus RN4220 was “inactive”.

Consider `C[C@@H]1CN([C@@H](C)CO)C(=O)c2cccc(NS(=O)(=O)c3cn(C)cn3)c2O[C@H]1CN(C)CC1CC1`, for which the cytotoxicity call in the assay with HSkMC and in the assay with HepG2 was “inactive” in each case. Moreover, the growth inhibition call with S. aureus RN4220 was “inactive”.

As for `C[C@H]1CN([C@@H](C)CO)C(=O)c2cccc(NC(=O)C3CCCCC3)c2O[C@H]1CN(C)Cc1ccc(C(F)(F)F)cc1`, the cytotoxicity call in the assay on HSkMC and in the assay with HepG2 was “inactive” throughout. Also, the growth inhibition call in the assay with S. aureus RN4220 was “inactive”.

Turning to `C[C@H](CO)N1C[C@H](C)[C@H](CN(C)C(=O)Nc2ccc(C(F)(F)F)cc2)Oc2ccc(NC(=O)Nc3ccccc3)cc2CC1=O`, the cytotoxicity call with HSkMC and in the assay with HepG2 was “inactive” each time. Besides, the growth inhibition call with S. aureus RN4220 is “inactive”.

In the case of `C[C@@H]1CCCCO[C@H](CN(C)C(=O)CCC(F)(F)F)[C@H](C)CN([C@H](C)CO)C(=O)c2cc(NC(=O)Cc3ccccc3)ccc2O1`, the cytotoxicity call in the assay with HSkMC and in the assay on HepG2 was “inactive” each time. Also, the growth inhibition call in the assay on S. aureus RN4220 was “inactive”.

`Cc1noc(C)c1S(=O)(=O)Nc1ccc2c(c1)C(=O)N([C@@H](C)CO)C[C@@H](C)[C@@H](CN(C)C(=O)Nc1cccc3ccccc13)OCCCC[C@@H](C)O2`: the cytotoxicity call in the assay with HSkMC is “inactive”. Moreover, in the assay with HepG2, the cytotoxicity call was “active”. Further, the growth inhibition call in the assay with S. aureus RN4220 was “inactive”.

Turning to `COc1ccc(CN(C)C[C@H]2OCCCC[C@H](C)Oc3ccc(NS(=O)(=O)c4c(C)noc4C)cc3C(=O)N([C@@H](C)CO)C[C@@H]2C)cc1`, the cytotoxicity call with HSkMC and in the assay on HepG2 was “inactive” in each case. Besides, the growth inhibition call with S. aureus RN4220 was “inactive”.

With `CC(C)NC(=O)N(C)C[C@@H]1Oc2c(NC(=O)C3CCOCC3)cccc2C(=O)N([C@H](C)CO)C[C@@H]1C`, the cytotoxicity call with HSkMC and with HepG2 was “inactive” in each case. Moreover, the growth inhibition call in the assay on S. aureus RN4220 is “inactive”.

For `C[C@H]1CN([C@@H](C)CO)S(=O)(=O)c2ccc(C#CC3CC3)cc2O[C@@H]1CN(C)C(=O)Cc1ccncc1`, the cytotoxicity call in the assay with HSkMC and in the assay with HepG2 was “inactive” throughout. Moreover, in the assay with S. aureus RN4220, the growth inhibition call is “inactive”.

Turning to `Cc1cc(O)c(C=O)c2c1C(=O)Oc1c(C)c(O)c3c(c1O2)C(O)OC3=O` (configuration not stated), the cytotoxicity call with HSkMC and in the assay on HepG2 was “inactive” throughout. Besides, the growth inhibition call with S. aureus RN4220 was “inactive”.

For `Cc1noc(C)c1S(=O)(=O)N(C)C[C@H]1Oc2c(NS(=O)(=O)c3ccccc3)cccc2C(=O)N([C@@H](C)CO)C[C@H]1C`, the cytotoxicity call in the assay on HSkMC and in the assay with HepG2 was “inactive” each time. In the assay on S. aureus RN4220, the growth inhibition call is “inactive”.

As for `CC(C)NC(=O)N(C)C[C@H]1OCCCC[C@@H](C)Oc2ccc(NC(=O)Nc3ccccc3)cc2C(=O)N([C@@H](C)CO)C[C@H]1C`, the cytotoxicity call in the assay on HSkMC and with HepG2 was “inactive” throughout. The growth inhibition call with S. aureus RN4220 is “inactive”.

In the case of `C[C@@H]1CN([C@H](C)CO)C(=O)Cc2cc(NC(=O)Nc3ccc4c(c3)OCO4)ccc2O[C@@H]1CN(C)S(C)(=O)=O`, the cytotoxicity call with HSkMC and in the assay on HepG2 was “inactive” each time. Besides, in the assay with S. aureus RN4220, the growth inhibition call is “inactive”.

Consider `COc1ccc(CN(C)C[C@H]2OCCCC[C@@H](C)Oc3ccc(NC(=O)Nc4ccc(F)cc4)cc3C(=O)N([C@@H](C)CO)C[C@@H]2C)cc1`, for which, in the assay on HSkMC (human skeletal muscle cells), the cytotoxicity call was “inactive”. Moreover, the cytotoxicity call in the assay with HepG2 is “active”. Besides, the growth inhibition call in the assay on S. aureus RN4220 is “inactive”.

As for `C[C@@H]1CN([C@@H](C)CO)C(=O)c2cccc(NS(=O)(=O)c3cccs3)c2O[C@@H]1CN(C)C(=O)Nc1cccc2ccccc12`, the cytotoxicity call with HSkMC and in the assay on HepG2 was “inactive” throughout. Moreover, the growth inhibition call in the assay on S. aureus RN4220 was “inactive”.

For `O=C(C[C@@H]1C[C@@H]2c3cc(NC(=O)NC4CCCC4)ccc3O[C@@H]2[C@H](CO)O1)NCCN1CCCCC1`, the cytotoxicity call with HSkMC and with HepG2 was “inactive” throughout. The growth inhibition call with S. aureus RN4220 is “inactive”.

Turning to `CO[C@H]1CN(C)C(=O)c2ccc(NC(=O)C3CC3)cc2OC[C@H](C)N(C(=O)C2CCOCC2)C[C@@H]1C`, the cytotoxicity call with HSkMC and in the assay with HepG2 was “inactive” each time. The growth inhibition call in the assay on S. aureus RN4220 is “inactive”.

Consider `Cc1ccc(NC(=O)Nc2cc(C(F)(F)F)ccc2F)cc1Nc1ccc2c(c1)NC(=O)/C2=C\c1ccc[nH]1`, for which the cytotoxicity call in the assay with HSkMC and in the assay with HepG2 was “active” throughout. Besides, the growth inhibition call in the assay with S. aureus RN4220 was “inactive”.

Regarding `COc1ccc(S(=O)(=O)Nc2ccc3c(c2)C(=O)N([C@@H](C)CO)C[C@H](C)[C@H](CN(C)C(=O)C2CCCCC2)OCCCC[C@@H](C)O3)cc1`, the cytotoxicity call in the assay with HSkMC and in the assay with HepG2 was “inactive” each time. Also, the growth inhibition call in the assay with S. aureus RN4220 was “inactive”.

Regarding `Cc1nc(N2CCC3(CC2)CO[C@@H](C)[C@H]3N)c(CO)nc1-c1cccc(Cl)c1Cl`, the cytotoxicity call with HSkMC and in the assay on HepG2 was “inactive” throughout. In the assay on S. aureus RN4220, the growth inhibition call is “inactive”.

On to `Cc1noc(C)c1NC(=O)N(C)C[C@H]1Oc2c(NS(=O)(=O)c3cn(C)cn3)cccc2C(=O)N([C@H](C)CO)C[C@H]1C`, for which the cytotoxicity call with HSkMC and in the assay on HepG2 was “inactive” in each case. In the assay on S. aureus RN4220, the growth inhibition call is “inactive”.

Take `CO[C@@H]1CN(C)C(=O)c2ccc(NS(=O)(=O)CC(F)(F)F)cc2OC[C@H](C)N(Cc2nccs2)C[C@@H]1C`: the cytotoxicity call in the assay with HSkMC and with HepG2 was “inactive” each time. For the same compound, in the assay with S. aureus RN4220, the growth inhibition call was “inactive”.

In the case of `CC(C)NC(=O)Nc1ccc2c(c1)CC(=O)N([C@@H](C)CO)C[C@H](C)[C@@H](CN(C)S(=O)(=O)c1cccs1)O2`, the cytotoxicity call with HSkMC and in the assay on HepG2 was “inactive” in each case. Besides, the growth inhibition call in the assay with S. aureus RN4220 is “inactive”.

For the origin of these results see the antibiotic and cytotoxicity screens of Wong et al. (2023).
